In the RNAGym collection of RNA variant scans (doi:10.1073/pnas.2313332121):
Variants at the background level are over-represented here.

B1: TPR 5TU (parent)
chain: GGAUCUUCUCGAUCUAACAAAAAAGACAAAUCUGCCACAAAGCUUGAGAGCAUCUUCGGAUGCAGAGGCGGCAGCCUUCGGUGGCGCGAUAGCGCCAACGUUCUCAACUAUGACACGCAAAACGCGUGCUCCGUUGAAUGGAGUUUAUCAUG

Variants of: B1
Assay: polymerase ribozyme fitness, log enrichment relative to wild type (log ratio); higher = more active; in vitro selection for triplet polymerase activity
How it was run: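 The heterodimeric triplet polymerase ribozyme's subunits were each mutagenized into PCR-built libraries and transcribed. Every library was selected once, in triplicate, by annealing with a biotinylated primer, the partner subunit and triplets, incubating frozen at −7 °C, gel-excising extended constructs, capturing on streptavidin beads and running RT-PCR. Input and output libraries were Illumina-sequenced, with genotypes kept only at ≥10 input reads and ≥1 read per output. Fitness, from inverse-variance-weighted replicate averages, is the base-2 logarithm of genotype enrichment over wild-type enrichment.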

| Variant | polymerase ribozyme fitness (log ratio) |
| --- | --- |
| A16G A30U C32G C51G U144A U151C | ≤ -4.2 |
| U15A U45C C85A U90C C95U A119U | ≤ -4.2 |
| U15A C57U G92A A115U | ≤ -4.2 |
| A16C C32U C72G C75A G86C C87G C99U A107U A120U G124U | ≤ -4.2 |
| A16C G50C A89G C95A A110U C116G | ≤ -4.2 |
| U15A A20U U33A A60C C85G | ≤ -4.2 |
| U15G G84A C96A A119U | -2.08 |
| C14U C32A A37C G62A C85A A107C A147C | ≤ -4.2 |
| A16U A29U U45G U61G C93A | ≤ -4.2 |
| C14U A20C U33A C76G G92C G141A | ≤ -4.2 |
| C14U G50C | -3.52 |
| A16C G42U G83A | ≤ -4.2 |
| C14U A19C A26C C76G U90C C95A A122U | ≤ -4.2 |
| C14U C93A A97G | ≤ -4.2 |
| U15G C18U U56C G83A C87U | -1.58 |
| A16G A66C G86U U101C | ≤ -4.2 |
| U15G G71C C79A C93U A138U | ≤ -4.2 |
| U15G A30U A52C C87G | ≤ -4.2 |
| A16C A40G U55A C76G C96A A113U | ≤ -4.2 |
| U15C G68C G84C C93A C99A G126U A142G | ≤ -4.2 |
| A16U A17C G50A U56A C87U G88A G117U | ≤ -4.2 |

| Variant | polymerase ribozyme fitness (log ratio) |
| --- | --- |
| C14U G88U | ≤ -4.2 |
| C14U G88C | ≤ -4.2 |
| A16C G48U A52G C75U U90G G92U A137C | ≤ -4.2 |
| C14U A17U A28C G83A A107G G133U | ≤ -4.2 |
| U15G A17C C27G C51A G59A C75U C87U | ≤ -4.2 |
| A16U A19U | -2.39 |
| C14U A23G A47U G50C C93U U144A | ≤ -4.2 |
| A16G G100C C116A | ≤ -4.2 |
| U15G A16U U55A A64U G92A C103U C116G G117C G141C | ≤ -4.2 |
| C14U A23G A24C G70A C85G A89U | ≤ -4.2 |
| A16C A39C U44A C85G A98U A115G | ≤ -4.2 |
| C14U A17C C18G A20G G59U C85U A91U C118U G140A | ≤ -4.2 |
| A16G C43A C87U C95A C99U G100A G128A | ≤ -4.2 |
| U15G A49C C51G G92A C95U C105U | ≤ -4.2 |
| C14U C54G C93A C95G A150G | ≤ -4.2 |
| A16U A17C G25C U56A A60C G84C U90C C95A | ≤ -4.2 |
| C14G U56A C85U G140A | ≤ -4.2 |
| U15G A17G C38A G62C G81A C85G | ≤ -4.2 |
| C14U A22C A30U C54U C57U A137C G141A U146G | ≤ -4.2 |
| A16U A22G A29U G80C C125U | ≤ -4.2 |
| A16C A19C C57G G88C G92U G143C | ≤ -4.2 |

| Variant | polymerase ribozyme fitness (log ratio) |
| --- | --- |
| A16C A23C C85G | ≤ -4.2 |
| U15C C54A G59A G84U A106G U146G | -2.98 |
| C14G U56G C75U C99G U139C | ≤ -4.2 |
| A16U A23C A24C C69A G70C C118U U139A U145G | ≤ -4.2 |
| A16G G86A | -0.891 |
| A16C C75A C85A A119C | ≤ -4.2 |
| C14U G81U C93A A119G | ≤ -4.2 |
| U15G A22U U53A A121C A147C | 0.0126 |
| C14U A29U U56A G65U U77G C87A C99G G124C | ≤ -4.2 |
| C14U U45A A91U U127G | ≤ -4.2 |
| U15A A21C A73G C95U U135G A138G U139C | ≤ -4.2 |
| A16G C27U U55C G58A G59U C79G G86C C87A C95U U101G C103G A122U | ≤ -4.2 |
| C14U A24U C38U C57U U61A C79G U82A | ≤ -4.2 |
| A16G U61A C99G | ≤ -4.2 |
| A16U A28U C79A G84A G86A | ≤ -4.2 |
| A16C A73U G88C C95G A98U | ≤ -4.2 |
| U15G G71A C93U | ≤ -4.2 |
| A16G A19G U33G C57G G94A C96A | ≤ -4.2 |
| A16C C57U A60G G86U C125U U134G | -4.12 |
| U15G A49C G65C A120C A142C | ≤ -4.2 |
| C14U U31A G83A A91C G117A | ≤ -4.2 |

| Variant | polymerase ribozyme fitness (log ratio) |
| --- | --- |
| C14U A19U A26U U61G C93U U134A U139A | ≤ -4.2 |
| U15G A30U U44A A49G C54A C76U G88A A110G | ≤ -4.2 |
| A16C A22U A89U C93U | -3.06 |
| U15G A22G U44C A73G G74U G80C U148A | ≤ -4.2 |
| C14U A91U G128C U130G U145A | ≤ -4.2 |
| C14U A26U A29G C32U A60G A98G | ≤ -4.2 |
| A16U A23G U53G C54A C63U | ≤ -4.2 |
| C14U A47C C51U G58C A66U C95A C131G | ≤ -4.2 |
| A16G A40U G74A A98G A107G G128U | ≤ -4.2 |
| A16U A29G G88A | ≤ -4.2 |
| A16C A20G A24U A40G G48U G58U U77C C85U | ≤ -4.2 |
| U15C A16U U101G A122U A137U G143C | ≤ -4.2 |
| U15G G25U U33C A66G C76G G81C C87U | ≤ -4.2 |
| A16U A98U A122G U146G | -3.26 |
| A16G C18G A49U G80A C131U U135G | ≤ -4.2 |
| C14U A29U U55G G81C G83A A115U | ≤ -4.2 |
| U15G A21U C85U A121U A138G | -4.04 |
| A16G C51G U56A C95U A106C C114U U144C U145C U146A | ≤ -4.2 |
| C14U A20C G48U C87G A91U C105G | ≤ -4.2 |
| A16G A17G A19C G50A | 0.928 |
| C14U A23U G34U C79A G94U U127A | ≤ -4.2 |
